Measured values published in PubChem BioAssay AID2546 (National Center for Advancing Translational Sciences (NCATS), 2010).
About 11,000 (3.5%) of roughly 310,000 compounds were called active. This list was built around the results that the source calls inconclusive (neither active nor inactive); the mix of calls is not that of the screen. The call rests on the fitted dose curve; in most records, active means well fitted inhibition curve with a large enough effect; inconclusive means small, poorly fitted or top-dose-only effect, or effect the other way; inactive means flat fitted curve, though single readings scatter. Potencies of inconclusive entries are left out as doubtful fits.
On the % scale 0 is the no-effect control and ±100 the full control effect; potency means the concentration at half of the fitted maximal effect; tags describe the fitted curve by direction and shape.

Assay: VP16 counterscreen qHTS for inhibitors of ROR gamma transcriptional activity;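 further: Gal4-VP16 expression switched on by copper sulfate through the metallothionein promoter; nearly all actives have a fitted effect of over 50% in size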
Details: Drosophila S2 Gal4-VP16 UAS-luciferase, luminescence, 20 h; activity, negative = inhibition: at 53.6 µM (top of the series)
In the case of `COc1ccc(Cl)cc1C(=O)Nc1ccc(NC(=O)C(C)C)cc1`, the “activity, negative = inhibition” value is reported as inactive: -2.39%.
With `CCC1=C2CC[C@H]3C(=O)NC(=O)[C@H]3[C@H]2[C@@]2(C)C(=NCCc3c[nH]c4ccccc34)OC(=O)N2C1=O` the “activity, negative = inhibition” value was inactive: -5.58%.
For `FC(F)(F)c1cccnc1Oc1ccc(C2=NCCS2)cc1`, the Potency was inconclusive [activator, single point].
With `COC(=O)c1cc(Sc2cccc(Cl)c2Cl)ccn1` the Potency was active: 11.2 µM.
In the case of `CCC(COC(C)=O)Nc1nc2c([nH]1)c(=O)n(C)c(=O)n2C` (stereo not drawn), the “activity, negative = inhibition” value is reported as inactive: -9.5%.
In the case of `Cc1ccc(C(=O)NC(=S)NCc2cccnc2)cc1C`, the Potency is reported as inconclusive [inhibitor, partial curve, poor fit].
With `CCOC(=O)C1(Cc2cccc(OC)c2)CCCN(C(=O)c2ccc(OC)o2)C1` (stereo not drawn) the Potency was inconclusive [activator, partial curve].
With `Cc1ccc2oc(-c3ccco3)cc(=O)c2c1` the Potency was inconclusive [activator, partial curve].
In the case of `COc1ccc(N=Nc2c(N)n[nH]c2N)cc1`, the “activity, negative = inhibition” value is reported as inactive: 22.8%.
In the case of `Cc1ccc(C(=O)N2CCCC(C(=O)c3cc(F)ccc3F)C2)s1` (stereo not drawn), the “activity, negative = inhibition” value is reported as inactive: -2.38%.
In the case of `Cc1cc(NC(=O)CCCS(=O)(=O)c2nc(-c3cccs3)cc(C(F)(F)F)n2)no1`, the Potency is reported as active: 0.891 µM.
With `O=C1COc2ccc(C(=O)COC(=O)c3cc(S(=O)(=O)NCc4ccccc4)ccc3O)cc2N1` the Potency was inconclusive [inhibitor, single point].
For `Nc1ccccc1N=Cc1ccc(-c2cccc(Cl)c2)o1`, the Potency was active: 12.6 µM.
With `Cc1ccc(OCc2cc(C(=O)NC3CCc4ccccc43)no2)cn1` (stereo not drawn) the Potency was inconclusive [inhibitor, single point].
With `CCC(=O)Nc1ccc(-c2cc(-c3ccccc3)nc(-c3ccc(NC(=O)CC)cc3)n2)cc1` the Potency was active: 7.08 µM.
For `COc1cccc(C(C(=O)NCC2CCCO2)N(CC2CCCO2)C(=O)CN2C(=O)c3ccccc3S2(=O)=O)c1` (stereo not drawn), the “activity, negative = inhibition” value was inactive: -10.5%.
In the case of `Cc1c(O)c(O)cc2c1oc1c3ccccc3oc(=O)c21`, the Potency is reported as inconclusive [inhibitor, single point].
In the case of `CC(=O)CSc1nnc(-c2ccc3c(c2)OCO3)o1`, the Potency is reported as active: 15.8 µM.
With `CN(C)/C=C1\N=C(c2ccc(Cl)cc2Cl)OC1=O` the Potency was inconclusive [inhibitor, full curve].
In the case of `COc1ccc(/C=C/C(=O)NC(=S)NNC(=O)Cc2cccs2)cc1`, the Potency is reported as inconclusive [inhibitor, single point].
In the case of `CCN(C(=O)CSc1ncccc1C(=O)OC(C)C)c1cccc(C)c1`, the Potency is reported as inconclusive [inhibitor, single point].
For `Cc1ccccc1NC(=O)c1ccc(COc2ccc3c(C)cc(=O)oc3c2)cc1`, the Potency was inconclusive [inhibitor, single point].
In the case of `Cc1cc(C)c([N+](=O)[O-])cc1-c1ccc(/C=N/NC(=O)c2nonc2N)o1`, the Potency is reported as inconclusive [inhibitor, single point].
With `Cc1ccc(C(c2nnnn2Cc2cccs2)N2CCN(Cc3ccc4c(c3)OCO4)CC2)cc1` (stereo not drawn) the “activity, negative = inhibition” value was inactive: -13%.
For `CC(=O)c1c(C)[nH]c(C(=O)OCC(=O)Nc2cccc(S(=O)(=O)N3CCCC3)c2)c1C`, the Potency was inconclusive [inhibitor, single point].
In the case of `O=C(c1cccs1)N1CCN(Cc2ccccn2)CC1`, the “activity, negative = inhibition” value is reported as inactive: -5.48%.
For `COc1ccc(C(=O)n2c(N)nc3ccccc32)cc1OC`, the Potency was inconclusive [inhibitor, single point].
With `Cc1cc2ccccc2c(=O)n1CC(=O)NCC(=O)N1CCN(c2ccccc2F)CC1` the Potency was inconclusive [inhibitor, single point].
In the case of `O=C(c1ccc(Cl)cc1)c1oc2ccccc2c1CS(=O)c1ccccc1` (stereo not drawn), the “activity, negative = inhibition” value is reported as inactive: -23.6%.
With `Cc1c(C(=O)O)sc2nc(CSc3nnc(-c4ccc(F)cc4)n3C)[nH]c(=O)c12` the Potency was inconclusive [inhibitor, single point].
For `S=C(NNc1ccnc2cc(Cl)ccc12)Nc1ccccc1Cl`, the Potency was inconclusive [inhibitor, single point].
In the case of `C#CCn1cc(/C=N/NC(=O)c2cc3ccccc3o2)c2ccccc21`, the Potency is reported as inconclusive [inhibitor, single point].
For `O=C(c1ccco1)N1N=C2CCCCCC2C1(O)C(F)(F)F` (stereo not drawn), the Potency was active: 1 µM.
In the case of `Cc1n[nH]c(=S)n1/N=C/c1c(O)ccc2ccccc12`, the Potency is reported as inconclusive [inhibitor, single point].
With `CCc1nc2ccccc2c(C(=O)OCC(=O)Nc2cccc(S(=O)(=O)NC3=NCCCCC3)c2)c1C` the Potency was inconclusive [inhibitor, single point].
With `CN(C)C(=S)Nc1ccc2ccccc2c1` the Potency was inconclusive [inhibitor, single point].
For `COc1ccccc1N(C)S(=O)(=O)c1ccc(C(=O)OCC(N)=O)cc1`, the “activity, negative = inhibition” value was inactive: 1.12%.
In the case of `Cc1cc(NC(=O)c2cc(-c3cccs3)on2)nn1Cc1ccc(Cl)cc1`, the Potency is reported as inconclusive [inhibitor, partial curve].
With `CC1(C)Cc2c(cnn2-c2cccc(F)c2)C(NC(=O)CCc2cnccn2)C1` (stereo not drawn) the Potency was inconclusive [inhibitor, single point].
With `C#CCOC(=O)Nc1ccc(OCC(F)(F)F)nc1` the Potency was inconclusive [activator, single point].
With `O=C(N/N=C/c1cc(Br)cs1)c1ccc2c(c1)OCCO2` the Potency was inconclusive [inhibitor, single point].
In the case of `Cc1cccc(-n2ncc3c(NC4CCCCC4)ncnc32)c1`, the Potency is reported as inconclusive [inhibitor, partial curve, poor fit].
With `Cc1ccc(C(=O)NCCCn2ccnc2)cc1[N+](=O)[O-]` the Potency was inconclusive [inhibitor, single point].
For `CN1C[C@H](C(=O)N[C@@]2(C)O[C@@]3(O)C4CCCN4C(=O)C(Cc4ccccc4)N3C2=O)C[C@H]2c3cccc4[nH]cc(c34)C[C@H]21` (stereo partly drawn), the “activity, negative = inhibition” value was inactive: -3.19%.
With `Cc1nc(-c2ccccc2)sc1C(=O)NN` the Potency was active: 11.2 µM.
For `CC1(C)CC(CCC(=O)NC(=S)Nc2ccccc2Cl)C(=O)O1` (stereo not drawn), the Potency was inconclusive [inhibitor, single point].
For `O=C(c1cccc(Cl)c1)N1CCC(c2nc3ccccc3[nH]2)CC1`, the “activity, negative = inhibition” value was inactive: 1.27%.
For `COc1ccccc1C(=O)NNC(=O)C(=O)NC1CCCCC1`, the “activity, negative = inhibition” value was inactive: -3.56%.
For `S=C(NNc1nc(Nc2ccccc2)nc(N2CCCCC2)n1)NC1CCCCC1`, the Potency was active: 12.6 µM.
In the case of `CCN1CC=C2C(C#N)=C(N)C(C#N)(C#N)[C@H](c3ccoc3)[C@H]2C1`, the Potency is reported as inconclusive [inhibitor, single point].
For `Cc1ccc(CNC(=O)C2CCCN(c3ncnc4c3nc3n4CCCCC3)C2)cc1` (stereo not drawn), the “activity, negative = inhibition” value was inactive: -0.539%.
For `O=C(Nc1ccc(N2CCOCC2)cc1)c1ccc(Br)o1`, the Potency was inconclusive [inhibitor, partial curve].
For `CCOc1ccc(N/C(C)=C/C(=O)c2ccc(C)o2)cc1`, the Potency was inconclusive [inhibitor, single point].
In the case of `C/C(=C\C(=O)c1ccc(Br)cc1)N1CCCCC1`, the “activity, negative = inhibition” value is reported as inactive: 1.38%.
For `CC1(C)CC(=O)C(C(C2=C(O)CC(C)(C)CC2=O)c2ccc(Br)s2)C(=O)C1` (stereo not drawn), the Potency was active: 10 µM.
With `CCOc1ccc(CCN2CN(C3CCCCC3)CNC2=S)cc1OCC` the Potency was active: 8.91 µM.
With `Cc1ccc(NC(=S)NCc2ccccc2)c(C)c1` the Potency was active: 7.08 µM.
In the case of `O=C(NNC(=O)c1cccnc1SCc1cccc([N+](=O)[O-])c1)c1cccnc1`, the “activity, negative = inhibition” value is reported as inactive: -15.1%.
For `Cn1c(=O)c(C(=O)NCCc2ccccc2)c(O)c2ccccc21`, the Potency was inconclusive [inhibitor, partial curve].
In the case of `COc1ccc(N2C(=O)[C@@H]3[C@H](C2=O)[C@H]2C=CC=NN2[C@@H]3C(=O)Nc2ccc(Cl)cc2)cc1`, the Potency is reported as inconclusive [inhibitor, single point].
In the case of `CN(Cc1ccccc1)C(=S)NC(=O)c1cccs1`, the Potency is reported as active: 0.251 µM.
With `Cc1cccc(N=C2NC(=O)/C(=C/C=C/c3ccco3)S2)c1` the Potency was inconclusive [inhibitor, single point].
For `CNC(=O)/C(C#N)=C/c1c(N(Cc2ccccc2)Cc2ccccc2)nc2c(C)cccn2c1=O`, the “activity, negative = inhibition” value was inactive: -14.1%.
In the case of `O=c1cc(-c2ccccc2)nc2nc(-c3ccccc3)[nH]n12`, the activity, negative = inhibition is reported as inactive: 2.3% [at 0.365 µM].
For `O=C(c1cccc(Cl)c1)N1CCCc2ccccc21`, the “activity, negative = inhibition” value was inactive: 0.179%.
For `COC(=O)c1ccc(N2CCN(c3ccccc3)CC2)c(NC(=O)C2CC2)c1`, the “activity, negative = inhibition” value was inactive: -10.5%.
For `Cc1cccc(C(=O)N2CCc3c([nH]c4ccccc34)C2CC(C)C)n1` (stereo not drawn), the Potency was inconclusive [activator, partial curve].
With `Cc1ccc(OCc2ccc(C(=O)NNC(=S)NCC3CCCO3)o2)c([N+](=O)[O-])c1` (stereo not drawn) the “activity, negative = inhibition” value was inactive: 0.529%.
In the case of `COc1ccccc1N1CCN(CC(=O)c2ccc3ccn(C(C)=O)c3c2)CC1`, the Potency is reported as inconclusive [inhibitor, single point].
For `O=C(CSc1nc2ccc(Cl)cc2[nH]1)Nc1ccc2c(c1)CCC2`, the Potency was inconclusive [inhibitor, single point].
For `Nc1c(C(=O)NCc2ccco2)c2nc3ccccc3nc2n1CCc1ccc(F)cc1`, the Potency was inconclusive [inhibitor, single point].
With `CN(C)c1ccc(Sc2nnc(NC(=O)Nc3ccc(Cl)cc3Cl)s2)cc1` the Potency was inconclusive [activator, single point].
In the case of `O=C(NC(Cc1ccccc1)C(=O)O)C1CCCCC1` (stereo not drawn), the “activity, negative = inhibition” value is reported as inactive: -12.2%.
